From the supplement of paper PMC9174493 come the findings set out here.

Assay [1] concerns A549-Dual. The experiment in a line: NF-kB reporter (SEAP) activity, viability-corrected, relative to vehicle (fold change vs vehicle); higher = more activation of STING-IRF / NF-kB immune response reporter.
Assay [2] concerns A549-Dual. Kind of assay: ISRE reporter (Lucia luciferase) activity, viability-corrected, relative to vehicle (fold change vs vehicle); higher = more activation of STING-IRF / NF-kB immune response reporter.

Some of the results follow. Single values of this set are uncertain. Values with irradiation are relative to irradiated vehicle.
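For NF-kB reporter (SEAP) activity, viability-corrected, relative to vehicle in this document: viability correction based on the alamar blue assay, with concentrations leaving 10% survival or less dropped.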

Consider `CCCCC1C(=O)N(c2ccccc2)N(c2ccccc2)C1=O` [Phenylbutazone], for which the NF-kB reporter was 1.11 with A549-Dual [1] (0.1 µM, irradiation: 8 Gy/4 fr); 1.12 with A549-Dual [1] (0.1 µM, irradiation: none); 1.18 in the assay on A549-Dual [1] (0.3 µM, irradiation: 8 Gy/4 fr); 1.08 in the assay with A549-Dual [1] (0.3 µM, irradiation: none); 0.868 with A549-Dual [1] (1 µM, irradiation: 8 Gy/4 fr); 1.08 in the assay on A549-Dual [1] (1 µM, irradiation: none). For the same molecule, the NF-kB reporter in the assay on A549-Dual [1] (3 µM, irradiation: 8 Gy/4 fr) turned out to be 1.07; in the assay with A549-Dual [1] (3 µM, irradiation: none), 0.838; in the assay on A549-Dual [1] (10 µM, irradiation: 8 Gy/4 fr), 1.13; in the assay with A549-Dual [1] (10 µM, irradiation: none), 0.907. For the same molecule, the ISRE reporter was 0.954 in the assay with A549-Dual [2] (0.1 µM, irradiation: 8 Gy/4 fr); 0.962 in the assay with A549-Dual [2] (0.1 µM, irradiation: none); 1.44 in the assay with A549-Dual [2] (0.3 µM, irradiation: 8 Gy/4 fr); 1.13 in the assay with A549-Dual [2] (0.3 µM, irradiation: none); 0.972 in the assay with A549-Dual [2] (1 µM, irradiation: 8 Gy/4 fr); 0.915 in the assay on A549-Dual [2] (1 µM, irradiation: none). Besides, the ISRE reporter in the assay on A549-Dual [2] (3 µM, irradiation: 8 Gy/4 fr) was 1.04; with A549-Dual [2] (3 µM, irradiation: none) it was 0.552; in the assay on A549-Dual [2] (10 µM, irradiation: 8 Gy/4 fr), 1; in the assay with A549-Dual [2] (10 µM, irradiation: none), 0.746.

As to `Cc1c(Cl)cccc1Nc1ncccc1C(=O)O` [Clonixin], the NF-kB reporter with A549-Dual [1] (0.1 µM, irradiation: 8 Gy/4 fr) was 1.05; with A549-Dual [1] (0.1 µM, irradiation: none), 1.17; in the assay on A549-Dual [1] (0.3 µM, irradiation: 8 Gy/4 fr), 0.991; with A549-Dual [1] (0.3 µM, irradiation: none), 0.937; with A549-Dual [1] (1 µM, irradiation: 8 Gy/4 fr), 1.26; in the assay on A549-Dual [1] (1 µM, irradiation: none), 0.998. In addition, the NF-kB reporter was 1.3 with A549-Dual [1] (3 µM, irradiation: 8 Gy/4 fr); 0.901 in the assay on A549-Dual [1] (3 µM, irradiation: none); 1.29 in the assay with A549-Dual [1] (10 µM, irradiation: 8 Gy/4 fr); 1.22 with A549-Dual [1] (10 µM, irradiation: none). The ISRE reporter with A549-Dual [2] (0.1 µM, irradiation: 8 Gy/4 fr) is 1.09; in the assay on A549-Dual [2] (0.1 µM, irradiation: none), 0.956; in the assay on A549-Dual [2] (0.3 µM, irradiation: 8 Gy/4 fr) it was 1.09; with A549-Dual [2] (0.3 µM, irradiation: none) it was 0.811; in the assay on A549-Dual [2] (1 µM, irradiation: 8 Gy/4 fr), 0.869; in the assay with A549-Dual [2] (1 µM, irradiation: none), 0.831. The ISRE reporter in the assay with A549-Dual [2] (3 µM, irradiation: 8 Gy/4 fr) amounted to 0.977; in the assay on A549-Dual [2] (3 µM, irradiation: none), 0.932; in the assay on A549-Dual [2] (10 µM, irradiation: 8 Gy/4 fr), 0.962; with A549-Dual [2] (10 µM, irradiation: none) it was 0.934.

Turning to `CC(C(=O)O)c1ccc2c(c1)CC(=O)c1ccccc1S2` (stereo not given) [Zaltoprofen], the NF-kB reporter in the assay with A549-Dual [1] (0.1 µM, irradiation: 8 Gy/4 fr) worked out at 0.821; in the assay on A549-Dual [1] (0.1 µM, irradiation: none), 1.1; in the assay with A549-Dual [1] (0.3 µM, irradiation: 8 Gy/4 fr), 0.804; in the assay on A549-Dual [1] (0.3 µM, irradiation: none), 1.59; with A549-Dual [1] (1 µM, irradiation: 8 Gy/4 fr), 1.18; with A549-Dual [1] (1 µM, irradiation: none) it was 0.939. The NF-kB reporter with A549-Dual [1] (3 µM, irradiation: 8 Gy/4 fr) stood at 1.24; with A549-Dual [1] (3 µM, irradiation: none), 0.985; with A549-Dual [1] (10 µM, irradiation: 8 Gy/4 fr) it was 0.826; in the assay on A549-Dual [1] (10 µM, irradiation: none), 0.799. For the same molecule, the ISRE reporter with A549-Dual [2] (0.1 µM, irradiation: 8 Gy/4 fr) was 0.928; with A549-Dual [2] (0.1 µM, irradiation: none), 0.968; in the assay with A549-Dual [2] (0.3 µM, irradiation: 8 Gy/4 fr), 0.791; in the assay with A549-Dual [2] (0.3 µM, irradiation: none), 1.04; with A549-Dual [2] (1 µM, irradiation: 8 Gy/4 fr), 0.832; in the assay on A549-Dual [2] (1 µM, irradiation: none), 0.93. Also, the ISRE reporter is 0.884 with A549-Dual [2] (3 µM, irradiation: 8 Gy/4 fr); 1.09 with A549-Dual [2] (3 µM, irradiation: none); 0.849 in the assay on A549-Dual [2] (10 µM, irradiation: 8 Gy/4 fr); 0.778 in the assay on A549-Dual [2] (10 µM, irradiation: none).

Take `CC12CCC3c4ccc(O)cc4CC(CCCCCCCCCS(=O)CCCC(F)(F)C(F)(F)F)C3C1CCC2O` (stereo not given) [Fulvestrant]: the NF-kB reporter with A549-Dual [1] (0.1 µM, irradiation: 8 Gy/4 fr) was 0.797; in the assay on A549-Dual [1] (0.1 µM, irradiation: none), 1.05; in the assay with A549-Dual [1] (0.3 µM, irradiation: 8 Gy/4 fr), 0.901; in the assay on A549-Dual [1] (0.3 µM, irradiation: none), 1.13; in the assay on A549-Dual [1] (1 µM, irradiation: 8 Gy/4 fr), 0.824; in the assay on A549-Dual [1] (1 µM, irradiation: none) it was 1.05. Further, the NF-kB reporter in the assay with A549-Dual [1] (3 µM, irradiation: 8 Gy/4 fr) was found to be 0.855; in the assay with A549-Dual [1] (3 µM, irradiation: none), 0.86; in the assay with A549-Dual [1] (10 µM, irradiation: 8 Gy/4 fr), 0.81; in the assay with A549-Dual [1] (10 µM, irradiation: none) it was 0.976. In addition, the ISRE reporter in the assay on A549-Dual [2] (0.1 µM, irradiation: 8 Gy/4 fr) was 0.825; in the assay on A549-Dual [2] (0.1 µM, irradiation: none) it was 0.922; in the assay on A549-Dual [2] (0.3 µM, irradiation: 8 Gy/4 fr), 1.02; with A549-Dual [2] (0.3 µM, irradiation: none), 1.08; in the assay with A549-Dual [2] (1 µM, irradiation: 8 Gy/4 fr), 0.798; in the assay on A549-Dual [2] (1 µM, irradiation: none) it was 1.04. For the same molecule, the ISRE reporter with A549-Dual [2] (3 µM, irradiation: 8 Gy/4 fr) was 0.764; in the assay with A549-Dual [2] (3 µM, irradiation: none), 1.11; in the assay with A549-Dual [2] (10 µM, irradiation: 8 Gy/4 fr), 0.804; in the assay on A549-Dual [2] (10 µM, irradiation: none), 1.66.

With `CC1CC2C3CC(F)C4=CC(=O)C=CC4(C)C3(F)C(O)CC2(C)C1(O)C(=O)CO` (stereo not given) [Diflorasone], the NF-kB reporter amounted to 0.43 with A549-Dual [1] (0.1 µM, irradiation: 8 Gy/4 fr); 0.469 with A549-Dual [1] (0.1 µM, irradiation: none); 0.585 with A549-Dual [1] (0.3 µM, irradiation: 8 Gy/4 fr); 0.462 in the assay with A549-Dual [1] (0.3 µM, irradiation: none); 0.935 in the assay with A549-Dual [1] (1 µM, irradiation: 8 Gy/4 fr); 0.463 with A549-Dual [1] (1 µM, irradiation: none). The NF-kB reporter in the assay with A549-Dual [1] (3 µM, irradiation: 8 Gy/4 fr) came out at 0.28; with A549-Dual [1] (3 µM, irradiation: none) it was 0.465; with A549-Dual [1] (10 µM, irradiation: 8 Gy/4 fr), 0.285; in the assay with A549-Dual [1] (10 µM, irradiation: none), 0.34. Moreover, the ISRE reporter was determined as 0.0395 in the assay on A549-Dual [2] (0.1 µM, irradiation: 8 Gy/4 fr); 0.166 in the assay on A549-Dual [2] (0.1 µM, irradiation: none); 0.0335 in the assay on A549-Dual [2] (0.3 µM, irradiation: 8 Gy/4 fr); 0.154 in the assay with A549-Dual [2] (0.3 µM, irradiation: none); 0.0605 in the assay on A549-Dual [2] (1 µM, irradiation: 8 Gy/4 fr); 0.129 in the assay with A549-Dual [2] (1 µM, irradiation: none). The ISRE reporter in the assay with A549-Dual [2] (3 µM, irradiation: 8 Gy/4 fr) was found to be 0.0401; with A549-Dual [2] (3 µM, irradiation: none), 0.136; with A549-Dual [2] (10 µM, irradiation: 8 Gy/4 fr), 0.0335; in the assay with A549-Dual [2] (10 µM, irradiation: none) it was 0.159.

In the case of `CCC1/C=C(\C)CC(C)CC(OC)C2OC(O)(C(=O)C(=O)N3CCCCC3C(=O)OC(/C(C)=C/C3CCC(Cl)C(OC)C3)C(C)C(O)CC1=O)C(C)CC2OC` (stereo not given) [Pimecrolimus], the NF-kB reporter came out at 1.13 with A549-Dual [1] (0.1 µM, irradiation: 8 Gy/4 fr); 1.07 in the assay with A549-Dual [1] (0.1 µM, irradiation: none); 1.05 in the assay with A549-Dual [1] (0.3 µM, irradiation: 8 Gy/4 fr); 1.29 in the assay with A549-Dual [1] (0.3 µM, irradiation: none); 1.12 in the assay on A549-Dual [1] (1 µM, irradiation: 8 Gy/4 fr); 1.61 in the assay on A549-Dual [1] (1 µM, irradiation: none). In addition, the NF-kB reporter in the assay with A549-Dual [1] (3 µM, irradiation: 8 Gy/4 fr) worked out at 1.1; with A549-Dual [1] (3 µM, irradiation: none) it was 1.24; in the assay on A549-Dual [1] (10 µM, irradiation: 8 Gy/4 fr) it was 1.21; in the assay on A549-Dual [1] (10 µM, irradiation: none), 1.38. The ISRE reporter came to 1.11 in the assay with A549-Dual [2] (0.1 µM, irradiation: 8 Gy/4 fr); 1.23 with A549-Dual [2] (0.1 µM, irradiation: none); 1.11 with A549-Dual [2] (0.3 µM, irradiation: 8 Gy/4 fr); 1.21 in the assay with A549-Dual [2] (0.3 µM, irradiation: none); 1.26 in the assay with A549-Dual [2] (1 µM, irradiation: 8 Gy/4 fr); 1.53 with A549-Dual [2] (1 µM, irradiation: none). For the same molecule, the ISRE reporter was 1.37 in the assay on A549-Dual [2] (3 µM, irradiation: 8 Gy/4 fr); 1.23 with A549-Dual [2] (3 µM, irradiation: none); 1.33 in the assay with A549-Dual [2] (10 µM, irradiation: 8 Gy/4 fr); 2 in the assay with A549-Dual [2] (10 µM, irradiation: none).
